Reference: patent publication US20220273789A1
A number of entries come with more than one value. Only these are listed. An entry can have further records. The values listed for one entry appear to be repeats (runs, samples, wells or individuals); one of them may be the mean.

What was measured:
human IgG (human) [1] = test: BLI (Octet), gEgI on Ni-NTA sensor, hIgG in solution
human IgG (human) [2] = test: BLI Octet, construct on Ni-NTA sensor, hIgG in solution

Substance	kon (human IgG (human) [1])	Kd (human IgG (human) [2])	Response (nm) (human IgG (human) [2])	koff (human IgG (human) [2])
Non mutated gEgI (HRV4) (from UniProt P89475 21-416; P06764 21-256) (receptor)	15900, 17600, 19300, 19500 M⁻¹ s⁻¹ [lines of one column]	–	–	–
Non mutated HSV2 gEgI (HRV4) (from UniProt P89475 21-416; P06764 21-256) (receptor)	–	262, 258, 163, 177 nM [lines of one column]	0.732, 0.751, 0.831, 0.796 nm [lines of one column]	0.00428, 0.00432, 0.00303, 0.00326 s⁻¹ [lines of one column]
